Measured values from the supplement of paper PMC12067093, “Discovery and optimisation of a covalent ligand for TRIM25 and its application to targeted protein ubiquitination” (Chemical Science, 2025).
Of roughly 21,000 targets only a part is listed; those with the largest changes were picked by preference.

Compound: CC1Cc2ccccc2N1C(=O)C1CCCN(C1)C(=O)CCl (mixture of isomers) [TRIM25 ligand 11 (diastereomer mixture)]
Experiment: probe-labelled cysteine peptide fold change vs DMSO (competition) (log2 fold change); higher = less target engagement (more negative = stronger competition)
Details: THP-1, incubation time: 4 h
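Note: competitive chemoproteomic profiling in live THP-1 cells with an iodoacetamide desthiobiotin (IA-DTB) probe, comparing probe-labelled peptide intensities in compound-treated cells against DMSO-treated controls.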

| Target | probe-labelled cysteine peptide fold change (50 µM) | probe-labelled cysteine peptide fold change (10 µM) |
| --- | --- | --- |
| MAP1S_Q66K74_841_HDPLPDPLKVPPPLPDPSSICMVDPEMLPPK (UniProt Q66K74) | -0.592 |  |
| MIA3_Q5JRA6_124_EELQVPTDETDFVCFDGGR (UniProt Q5JRA6) | -0.176 | -0.0412 |
| MYO18A_Q92614_1199_NLTLFQAACR (UniProt Q92614) | -0.149 | -0.02 |
| MAN2C1_Q9NTJ4_29_FVSPLYFTDCNLR (UniProt Q9NTJ4) | 0.132 |  |
| MAN2B2_Q9Y2E5_697_LTHVPQGHDGELLCHR (UniProt Q9Y2E5) | -0.264 | -0.0471 |
| METTL18_O95568_48_CSAEQFDLPQDHLWEHK (UniProt O95568) | -0.324 |  |
| MTHFS_P49914_180_EQICLQVPVNENDMK (UniProt P49914) | 0.555 |  |
| MRPL43_Q8N983_91_VVAEYLNGAVREESIHCK (UniProt Q8N983) | -0.199 | -0.239 |
| MARK3_P27448_46_NSIASCADEQPHIGNYR (UniProt P27448) | -0.183 | -0.124 |
| MEFV_O15553_315_CHAQEGDPVDGTCVR (UniProt O15553) | -0.0819 | -0.00687 |
| MIOS_Q9NXC5_377_HLYECTEEENDNSLEK (UniProt Q9NXC5) | 0.047 | -0.126 |
| MRPL38_Q96DV4_290_QDQPIDFSEDARPSPCYQLAQR (UniProt Q96DV4) | -0.12 |  |
| MBOAT7_Q96N66_304_NIDCYSTDFCVR (UniProt Q96N66) | 0.128 | 0.208 |
| MIA3_Q5JRA6_1513_AGLEDECK (UniProt Q5JRA6) | 0.237 |  |
| METTL7B_Q6UX53_96_VTCLDPNPHFEK (UniProt Q6UX53) | 0.0816 | 0.0518 |
| MTA3_Q9BTC8_109_CSVALLNETESVLSYLDK (UniProt Q9BTC8) | 0.652 |  |
| MINK1_Q8N4C8_129_EDCIAYICR (UniProt Q8N4C8) | 0.0793 |  |
| MCM6_Q14566_302_LVFLACCVAPTNPR (UniProt Q14566) | -0.0708 | -0.101 |

| Target | probe-labelled cysteine peptide fold change (50 µM) | probe-labelled cysteine peptide fold change (10 µM) |
| --- | --- | --- |
| MBTPS2_O43462_386_SSSSSFCIIPSLETHTR (UniProt O43462) | 0.0105 |  |
| MPG_P29372_215_DRELCSGPSK (UniProt P29372) | -0.11 | -0.181 |
| MTFR1_Q15390_145_ICALENELAALR (UniProt Q15390) | -0.219 | -0.258 |
| LYPLA2_O95372_213_TYPGVMHSSCPQEMAAVK (UniProt O95372) | -0.403 |  |
| MDN1_Q9NU22_5386_QYQICLAIDDSSSMVDNHTK (UniProt Q9NU22) | 0.122 | 0.0411 |
| MTA2_O94776_209_ALDCSSSIR (UniProt O94776) | 0.0396 |  |
| NAPRT_Q6XQN6_48_RCPFGGAFALAAGLR (UniProt Q6XQN6) | 0.176 | -0.348 |
| MPC2_O95563_54_WGLVCAGLADMAR (UniProt O95563) | 0.156 | 0.0107 |
| MYCBP2_O75592_4406+4413_NEEHCLPCLHGCDK (UniProt O75592) | -0.22 |  |
| LTN1_O94822_869_THLPDFLICK (UniProt O94822) | 0.118 | -0.000878 |
| MIS18A_Q9NYP9_85_AQLEEEAAAAEERPLVFLCSGCR (UniProt Q9NYP9) | -0.0797 |  |
| NANP_Q8TBE9_49_YHYKEEAEIICDK (UniProt Q8TBE9) | -0.0521 | -0.111 |
| MTPN_P58546_83_HHITPLLSAVYEGHVSCVK (UniProt P58546) | -0.103 | 0.119 |
| MTR_Q99707_1153_ELWAYCGSEQLDVADLRR (UniProt Q99707) | -0.174 | -0.0992 |
| LYST_Q99698_808_DLFLSCNGVSQIIELNCLNGIR (UniProt Q99698) | -0.449 | -0.589 |
| MCMBP_Q9BTE3_325_LQHINPLLPACLNK (UniProt Q9BTE3) | -0.105 | 0.00028 |
| MOV10_Q9HCE1_650_LVSAQFPIDHFTHIFIDEAGHCMEPESLVAIAGLMEVK (UniProt Q9HCE1) | -0.153 |  |
